Experimental data reported in PubChem BioAssay AID2675 (National Center for Advancing Translational Sciences (NCATS), 2010).
The whole screen tested about 280,000 compounds, of which about 100 (0.036%) were called active. Inconclusive means that the source gave no clear call. Such entries were picked first, then a sample of the others. Calls follow the shape of the dose curve; as a rule, active = well fitted inhibition curve with a large enough effect in the signal ratio, with a control signal flat (not every such curve was filed as active); inconclusive = small, poorly fitted or top-dose-only effect, or effect the other way, or a change in a side signal; inactive = no such curve, though single readings can be large or run the other way; the % refers to the signal ratio. Potencies of inconclusive entries are doubtful fits and often do not repeat. “Side channel” marks fits to a control or component signal instead of the main read-out.

biological target: Muscleblind-like protein 1 (Homo sapiens) (UniProt Q9NR56); test: qHTS Assay for Inhibitors of MBNL1-poly(CUG) RNA binding; conditions: TR-FRET MBNL1-His/biotin-(CUG)12 binding, 665/545 ratio; activity change, negative = inhibition: at 57.5 µM (top of the series)
How it was run: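 Compound titration spanned 92 nM–58 uM against the MBNL1-His/biotin-(CUG)12 complex. After 60 min at room temperature with 5 nM streptavidin-XL665 and 0.055 ng/ul terbium anti-His, ratiometric 665/545 nm emission (Ex 340 nm) normalized to controls.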
% is scaled to controls: 0 for no effect and ±100 for the full control effect; potency is read from the fitted curve at half-maximal effect; tags tell the direction and shape of the fitted curve or compound fluorescence and quenching.

Sequence of UniProt Q9NR56 (Q9NR56 whole entry, looked up): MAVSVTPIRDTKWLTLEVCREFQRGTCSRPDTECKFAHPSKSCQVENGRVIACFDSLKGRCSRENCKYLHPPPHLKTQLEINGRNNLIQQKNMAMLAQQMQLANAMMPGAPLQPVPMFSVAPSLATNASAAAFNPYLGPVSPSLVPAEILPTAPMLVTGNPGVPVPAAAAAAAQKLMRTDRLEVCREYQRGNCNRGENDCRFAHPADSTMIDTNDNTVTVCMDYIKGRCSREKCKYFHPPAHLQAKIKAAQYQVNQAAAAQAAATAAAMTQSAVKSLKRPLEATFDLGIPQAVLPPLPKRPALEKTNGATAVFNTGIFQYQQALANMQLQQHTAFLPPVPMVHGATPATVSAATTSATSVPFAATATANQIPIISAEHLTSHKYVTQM

Row | Compound | Potency | activity change, negative = inhibition
1 | COC(=O)COc1cccc2c(=O)n(CC(=O)NCCc3ccc(OC)c(OC)c3)ccc12 | inconclusive: 100 µM [inhibitor, partial curve] | 
2 | CN(C)CC#CCCCCCCC#CCN(C)C |  | inactive: 12.9%
3 | COc1ccccc1N1CCN(C2=Nc3cccc4cccc2c34)CC1 | inconclusive: 12.6 µM [quencher, side channel, partial curve] | 
4 | CC(C)CN(C(=O)COC(=O)c1cc2c(s1)CCC2)C1CCS(=O)(=O)C1 (stereo not given) |  | inactive: 0.0877%
5 | COc1ccc(CCNC(=O)Cc2cc(OCc3ccccc3)c(OC)cc2[N+](=O)[O-])cc1OC | inconclusive: 15.8 µM [quencher, side channel, partial curve] | 
6 | CCOC(=O)c1cc2c(=O)n3ccccc3nc2n(CCOC)c1=NC(=O)C(C)(C)C | inconclusive: 7.08 µM [quencher, side channel, partial curve] | 
7 | Cc1ccc(C(=O)N/C(=C\c2ccccc2F)c2nc(=S)[nH][nH]2)cc1 | inconclusive: 39.8 µM [quencher, side channel, single point] | 
8 | O=C(CCCCCn1c(=S)[nH]c2ccc(N3CCOCC3)cc2c1=O)NCc1ccc(Cl)cc1 |  | inactive: 19.7%
9 | Cc1cccc2c(N=O)c(O)[nH]c12 | inconclusive: 14.1 µM [quencher, side channel, partial curve] | 
10 | O=[N+]([O-])c1ccc2oc(-c3cccc(O)c3)nc2c1 | inconclusive: 10 µM [quencher, full curve, poor fit] | 
11 | Cc1nn(-c2cccc(Cl)c2)c2nc(-c3ccco3)cc(C(=O)O)c12 |  | inactive: -2.44%
12 | CC(C)[C@H](Nc1ccc(C(F)(F)F)cc1[N+](=O)[O-])C(=O)O | inconclusive: 31.6 µM [quencher, side channel, single point] | 
13 | Cc1ccc(-c2ocnc2C(=O)Nc2ccccc2NC(=O)c2ccccn2)cc1 |  | inactive: -0.801%
14 | Nc1ccccc1Sc1c[nH]c2ccccc12 |  | inactive: -0.788%
15 | Oc1ccccc1/C=N/Nc1ccccc1 |  | inactive: -0.837%
16 | CC(=O)Nc1ccc(N2CCOCC2)c([N+](=O)[O-])c1 | inconclusive: 11.2 µM [quencher, side channel, partial curve] | 
17 | CCn1c(SCC(=O)N/N=C/c2cc(OC)c(OC)c(OC)c2)nc2ccccc21 | inconclusive: 10 µM [quencher, side channel, partial curve, poor fit] | 
18 | Cn1c(NC(=O)c2ccc(Br)o2)cc(=O)n(C)c1=O |  | inactive: 16.5%
19 | O=S(=O)(c1ccccc1)N1CCN(c2nc3ccccc3s2)CC1 | inconclusive: 35.5 µM [fluorescent, side channel, single point] | 
20 | Cc1[nH]nc2c1C(c1ccc(F)cc1)C(C#N)=C(N)O2 (stereo not given) |  | inactive: -1.1%

Row | Compound | Potency | activity change, negative = inhibition
21 | O=C(Nc1cccnc1)/C(N=Nc1cccnc1)=C(\O)c1ccccc1 | inconclusive: 10 µM [quencher, side channel, single point] | 
22 | CC(=O)c1sc(-c2ccccc2)nc1C | inconclusive: 25.1 µM [quencher, side channel, partial curve] | 
23 | COc1cccc(NC(=O)C(=O)c2cn(CC(=O)N3CCCC3)c3ccccc23)c1 | inconclusive: 35.5 µM [quencher, side channel, single point] | 
24 | c1ccc2c(c1)Cn1c-2nc2ccccc21 |  | inactive: 1.7%
25 | O=C(CCS(=O)(=O)c1cccc2nonc12)N1CCOCC1 | inconclusive: 10 µM [quencher, side channel, partial curve] | 
26 | O=C1c2ccc([N+](=O)[O-])cc2C(=O)N1c1c[nH]c(=O)[nH]c1=O | inconclusive: 14.1 µM [quencher, side channel, partial curve] | 
27 | COc1cc(/C=C2/C(=O)N(c3ccc(C(=O)O)cc3)N=C2C)cc(OC)c1O | inconclusive: 28.2 µM [quencher, side channel, single point] | 
28 | c1ccc(CSc2nnc3ccc(-c4ccco4)nn23)nc1 | inconclusive: 20 µM [quencher, side channel, partial curve] | 
29 | COc1cc(/C=C2\SC(=S)N(Nc3ncc(C(F)(F)F)cc3Cl)C2=O)ccc1O | inconclusive: 25.1 µM [quencher, side channel, partial curve] | 
30 | COc1ccc(/C=C/C(=O)c2cc(Cl)ccc2O)c(OC)c1 |  | inactive: -5.98%
31 | O=c1cnn(Cc2ccc(Cl)c(Cl)c2)c2ccccc12 | inconclusive: 7.94 µM [quencher, side channel, partial curve] | 
32 | COc1ccc(CN2C(=O)c3cccnc3C2=O)cc1S(=O)(=O)N1CCOc2ccccc21 | inconclusive: 8.91 µM [quencher, side channel, partial curve] | 
33 | O=C(CSc1nccc(=O)[nH]1)Nc1cc(C(F)(F)F)ccc1N1CCOCC1 | inconclusive: 0.501 µM [quencher, side channel, full curve] | 
34 | CC(C)c1ccc(N2C(=O)/C(=C/N(C)C)SC2=S)cc1 | inconclusive: 14.1 µM [quencher, side channel, partial curve] | 
35 | CCc1ccc2[nH]c(=O)c(C3C(C#N)=C(N)Oc4c3ccc3cccnc43)cc2c1 (stereo not given) | inconclusive: 44.7 µM [quencher, side channel, partial curve] | 
36 | CC(=O)Nc1ccc(NC(=O)CCC(=O)OCC(=O)c2cccc([N+](=O)[O-])c2)cc1 | inconclusive: 28.2 µM [quencher, side channel, partial curve] | 
37 | COc1ccc(NC(=O)C2C3C=CC4(O3)C2C(=O)N(CCN2CCCCC2C)C4C(=O)NC2CCCCC2)cc1 (stereo not given) |  | inactive: -0.105%
38 | CCCCn1c(=O)c(CCC(=O)OCC(=O)NC(=O)NCCC(C)C)nc2ccccc21 |  | inactive: -1%
39 | Cc1ccc(-c2nc(N)c3c(-c4ccc(C)cc4)nn(C(C)(C)C)c3n2)cc1 | inconclusive: 39.8 µM [quencher, side channel, single point] | 
40 | Cc1ccc(C(=O)NCCNS(=O)(=O)c2ccccc2[N+](=O)[O-])cc1 | inconclusive: 31.6 µM [quencher, side channel, single point] | 
